From publication PMC4336329 (PLoS ONE, 2015)
Out of some 310,000 compounds screened, about 14,000 (4.5%) showed an effect of 50% or more. Effects have a minus sign here. This is one part of the list. Where a SMILES comes first, the peptide text is derived from it. The star is where a group is joined. Boc = CC(C)(C)OC(=O)*

What follows are compounds tested against human ether-à-go-go-related gene (hERG) potassium channel (human, UniProt Q12809) (assay: primary screen, population patch clamp on CHO cells stably expressing hERG).
Chain of human ether-à-go-go-related gene (hERG) potassium channel (Q12809 whole entry, looked up): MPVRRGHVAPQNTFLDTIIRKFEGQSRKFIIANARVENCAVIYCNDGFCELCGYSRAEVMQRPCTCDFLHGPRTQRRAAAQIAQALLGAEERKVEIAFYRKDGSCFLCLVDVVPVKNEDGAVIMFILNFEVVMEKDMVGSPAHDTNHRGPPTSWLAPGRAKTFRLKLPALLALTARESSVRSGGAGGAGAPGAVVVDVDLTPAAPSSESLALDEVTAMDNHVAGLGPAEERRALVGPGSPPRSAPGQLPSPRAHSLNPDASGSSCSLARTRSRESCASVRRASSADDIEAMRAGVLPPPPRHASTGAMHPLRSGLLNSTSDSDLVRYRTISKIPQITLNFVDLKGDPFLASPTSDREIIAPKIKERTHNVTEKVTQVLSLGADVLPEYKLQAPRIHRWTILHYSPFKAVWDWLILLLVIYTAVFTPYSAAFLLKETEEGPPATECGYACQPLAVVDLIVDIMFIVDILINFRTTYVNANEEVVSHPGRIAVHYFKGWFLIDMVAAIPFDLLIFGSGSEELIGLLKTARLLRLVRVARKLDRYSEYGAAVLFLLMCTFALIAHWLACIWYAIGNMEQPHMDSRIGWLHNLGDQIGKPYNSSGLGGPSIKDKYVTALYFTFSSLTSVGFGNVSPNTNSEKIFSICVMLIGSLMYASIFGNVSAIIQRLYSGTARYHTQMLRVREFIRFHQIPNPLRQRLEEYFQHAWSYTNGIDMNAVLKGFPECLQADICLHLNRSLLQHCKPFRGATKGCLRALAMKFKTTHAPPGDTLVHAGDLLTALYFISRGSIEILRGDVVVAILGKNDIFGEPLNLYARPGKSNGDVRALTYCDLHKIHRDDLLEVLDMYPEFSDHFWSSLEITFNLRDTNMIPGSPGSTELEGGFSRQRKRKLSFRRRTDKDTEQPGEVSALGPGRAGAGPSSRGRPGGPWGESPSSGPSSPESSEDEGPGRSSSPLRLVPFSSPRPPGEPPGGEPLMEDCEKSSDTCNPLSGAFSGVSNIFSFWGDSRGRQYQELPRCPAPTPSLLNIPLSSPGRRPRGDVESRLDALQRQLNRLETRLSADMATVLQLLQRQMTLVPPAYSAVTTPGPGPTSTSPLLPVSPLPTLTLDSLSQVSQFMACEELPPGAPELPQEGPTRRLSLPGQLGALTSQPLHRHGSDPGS
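Also: peak tail current of the secondary pulse compared with the same well before compound.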

Structure (SMILES) | hERG current change (%, negative = inhibition) at 10uM
CC(NCC#Cc1ccccc1)C(O)c1ccccc1.Cl (centres unmarked) | -1.67%
CCCn1c(=O)c(/C(N)=N/O)nn(-c2cccc(C(F)(F)F)c2)c1=O | 3.48%
CCNC(=S)SCCOc1ccc(C)cc1 | -7.02%
Cc1cccc(/C(N)=N/OC(=O)N2CCOCC2)c1 | -13.8%
CCOC(=O)c1[nH]c(C)c(C(=O)OCC(=O)Nc2sc3c(c2C#N)CCCCC3)c1C | 11.5%
COCCNC(=O)c1ccccc1NC(=O)Cc1ccccc1[N+](=O)[O-] | 18.3%
O=C(CSc1nc(-c2cccs2)cc(C(F)(F)F)n1)Nc1cc(OCC(F)(F)C(F)F)cc([N+](=O)[O-])c1 | 24.6%
COc1ccc(C)cc1S(=O)(=O)N(CC(=O)N1CCCC1)c1ccccc1 | -37.9%
S=C(Nc1ccc2c(c1)OCO2)N1CCCC1 | 23.3%
Nc1c(-c2ccccc2)cnn1-c1cccc(Cl)c1 | -12.3%
COc1ccc(C(=O)Nc2ccc3c(c2)nc(CN2CCCC2)n3C)cc1 | -44.4%
CCN(CC)S(=O)(=O)c1cccc(C(=O)OCc2cc(=O)n3nc(C)sc3n2)c1 | -47.6%
CSc1nc2ccccc2n1CC(=O)Nc1cc(C(F)(F)F)ccc1N1CCOCC1 | -21.2%
COc1ccccc1-n1cnc2cc(C(=O)N3CCOCC3)ccc21 | 5.33%
COc1cccc(/C=C2\SC(=S)NC2=O)c1OS(=O)(=O)c1ccc(NC(C)=O)cc1 | 15.6%
Nc1ccc(-c2n[nH]c(=O)c3ccccc23)cc1N | -2.76%
Cc1cnc(N)c2c(=O)oc3ccccc3c12 | 7.9%
CN(C1=C(N2CCOCC2)C(=O)c2ccccc2C1=O)c1ccccc1 | -14.9%
Cc1ccc(-c2sc(C)nc2CC(=O)O)cc1 | 16%
COC(=O)C(CC(C)C)NC(=O)C(Cc1ccccc1)NC(=O)C1CCCN1C(=O)OC(C)(C)C (stereo not drawn) (Boc-Pro-Phe-Leu-OMe; configuration not given here) | 54.5%
c1ccc(-c2csc(N3CCN(c4ccccn4)CC3)n2)cc1 | -1.09%
COc1ccc(NC(=O)COC(=O)c2ccc(OCc3ccccc3Cl)c(OC)c2)c(OC)c1 | 3.47%

Structure (SMILES) | hERG current change (%, negative = inhibition) at 10uM
Cn1c(N)c(S(=O)(=O)N2CCN(c3ccccc3)CC2)c(=O)n(C)c1=O | -0.0444%
Cc1cc(C)nc(N(C#N)CN2C(=O)c3ccccc3C2=O)n1 | 8.29%
OC(COCc1ccccc1)CN1CCN(c2ccccc2)CC1 (centres unmarked) | -45.2%
COc1ccc2c(c1)C=C(CN1CCC(CO)(CCc3ccccc3)CC1)CO2 | -77.1%
CCCN1CCN(C(=O)CCc2nnc3ccc(N4CCN(c5cccc(OC)c5)CC4)nn23)CC1 | -54.9%
COC(=O)c1ccc(NC(=O)C2CCCN2S(=O)(=O)c2ccc(C)cc2)cc1 (centres unmarked) | -2.38%
Cc1nnc(NC(=O)C2CC(=O)N(C(C)c3ccccc3)C2)s1 (centres unmarked) | 14.3%
O=C(Nc1nc(-c2ccc(S(=O)(=O)N3CCCC3)cc2)cs1)C1COc2ccccc2O1 (centres unmarked) | 13.1%
CCCCC(CC)CNC(=O)C(Cc1ccccc1)NS(=O)(=O)c1ccc2c(c1)CCC(=O)N2 (centres unmarked) | 3.41%
CCCNS(=O)(=O)c1cc(CN2C(=O)c3cccnc3C2=O)ccc1OC | 16.4%
Cc1cc(C)c(C#N)c(SCc2ccccc2[N+](=O)[O-])n1 | 4.43%
O=C(CSc1cccc[n+]1[O-])Nc1ccccc1Oc1ccccc1 | 5.43%
COc1cc(NC(=O)c2cc(-c3ccc(C)cc3)on2)cc(OC)c1OC | 18.8%
C/C(=N/NC(=O)CCC(=O)Nc1cccc(Cl)c1)c1ccc(C)cc1 | 18.7%
Br.CCC(=O)Nc1nc(C)c(-c2csc(Nc3cccc(O)c3)n2)s1 | -27.5%
O=C(CSC(=S)N1CCCCC1)c1ccccc1 | 16.1%
O=C(NCCN1CCOCC1)c1cccc(S(=O)(=O)Nc2ccc(F)cc2)c1 | -5.27%
CC(=O)Nc1ccc(NC(=O)Cc2sc(C)nc2-c2ccc(C)cc2)cc1 | -6.85%
CCOCCCNC(=O)CCc1nnc2n(CCC(C)C)c(=O)c3ccccc3n12 | -22.5%
CCCC1(C(=O)O)NC(c2ccc(OC)cc2O)C2C(=O)N(c3ccc(OC)cc3)C(=O)C21 (centres unmarked) | 22.1%
Cc1ccc(-c2cc(C(=O)N3CC(C)OC(C)C3)c3ccccc3n2)o1 (centres unmarked) | 5.89%
CCC(C(=O)OCC(=O)Nc1c(Cl)cc(Cl)cc1Cl)c1ccccc1 (centres unmarked) | 13.9%

Structure (SMILES) | hERG current change (%, negative = inhibition) at 10uM
Cc1ccc(C)c(OCCC(=O)OCC(=O)N2c3ccccc3NC(=O)C2(C)C)c1 | -6.54%
CCC1CCCCN1CCCNC(=O)CS(=O)(=O)Cc1nc(-c2cccc(OC)c2)oc1C (centres unmarked) | -29.4%
COc1cc(OC)cc(C(=O)Nc2ccccc2N2CCOCC2)c1 | -47.6%
COc1ccccc1NC(=O)c1cc(S(=O)(=O)N2CCc3ccccc32)ccc1F | 15.2%
CCOC(=O)/C(N=Nc1ccc(F)cc1)=C(/O)c1ccc([N+](=O)[O-])cc1 | 9.15%
Cc1noc(C)c1CSc1nc2ccccc2c(=O)n1-c1ccc(F)cc1F | -8.94%
CCN(CC(=O)Nc1ccc(NC(C)=O)cc1)C(=O)c1cccc(S(=O)(=O)N2CCCC2)c1 | 0.775%
O=C(Nc1ccc(Oc2cccc(C(F)(F)F)c2)nc1)c1cccs1 | 6.11%
C=CCNc1nc(Nc2ccc(-c3nc4ccccc4o3)cc2)nc(N2CCOCC2)n1 | 4.46%
NC(=O)CC(NC(=O)Cc1cccc2ccccc12)c1ccc(NCc2ccccc2)c([N+](=O)[O-])c1 (centres unmarked) | 5.89%
CC1=C(C(=O)N(C)C)C(c2ccc(N3CCOCC3)cc2)NC(=O)N1 (centres unmarked) | 21.1%
CCCCc1ccc(N=N/C(C(=O)Nc2cc(OC)c(NC(C)=O)cc2OC)=C(/C)O)cc1 | 14.2%
CCN1C(=O)/C(=C\C(=O)c2cccs2)c2cc(Br)ccc21 | 22.7%
Cc1nccc(-c2ccc3c(c2)OCO3)n1 | -1.48%
Cc1cccc(OP(N)(N)=O)c1C | 16.8%
COCCN(C(=O)COC(=O)Cc1ccc(Cl)cc1Cl)c1c(N)n(Cc2ccccc2)c(=O)[nH]c1=O | 7.1%
CCc1ccc([C@@H]2C[C@H]3CN(Cc4ccccc4OC)C(=O)[C@]34CCCN24)cc1 | -70.7%
CC(C1CCN(Cc2nc(C3CC3)no2)CC1)N1CCOCC1 (centres unmarked) | -2.69%
CC(C)c1nc2n[nH]c(N)c2c2c1CSC(C)(C)C2 | -16.2%
COc1ccc(N2CCN(C(=O)CSc3ccc([N+](=O)[O-])cc3)CC2)cc1 | -68.4%
Oc1c(N=Nc2ccccn2)ccc2ccccc12 | 9.24%
CCCC(=O)N1CCN(c2nc3ccc(Br)cc3s2)CC1 | -71%

Structure (SMILES) | hERG current change (%, negative = inhibition) at 10uM
Cc1ccc(/C=C/c2onc(C)c2S(=O)(=O)N2CCC(C(=O)N3CCN(C)CC3)CC2)cc1 | -10.9%
Nc1nc(SCC(=O)Nc2ccc(Cl)c([N+](=O)[O-])c2)n[nH]1 | 0.58%
COc1ccc(S(=O)(=O)NCc2cccnc2)cc1NC(=O)c1ccc(C)cc1 | -17.6%
CC1=C(C)NC(=S)SC1 | 13.9%
C=CC[C@@H]1Cc2c(Br)ccc(Br)c2[C@@H](CC=C)N1.Cl | 17.7%
O=C(CSC(=S)N1CCOCC1)c1ccccc1 | 2.75%
Cc1cccc(C(C)C)c1NC(=O)CN1C(=O)NC(Cc2ccccc2)C1=O (centres unmarked) | -3.13%
CCOC(=O)c1ccc(NC(=O)NNS(=O)(=O)c2cc(OC)ccc2OC)cc1 | 56%
CC1CCN(S(=O)(=O)c2ccc(C(=O)Nc3ncccc3O)cc2)CC1 | -1.81%
Cl.O=C(c1ccc(Cn2cc(Cl)cn2)o1)N1CCN(Cc2ccc3c(c2)OCO3)CC1 | -41.5%
COC(=O)N/N=C/c1c[nH]c2ccccc12 | 14.5%
O=C(c1ccc2nc(Cc3cccc(Cl)c3)oc2c1)N1CCC(CO)CC1 | -6.41%
CCOC(=O)CN1C(=O)N[C@@H](c2cccc(F)c2)C(C(=O)OC)=C1C | -13.4%
CCCn1c(=O)c2ccccc2n2c(SCC(N)=O)nnc12 | 4.57%
Cc1cc(NCc2ccccc2)n2ncnc2n1 | 19.6%
C/C(CC(=O)N(C(C)C)C(C)C)=N\NC(=O)COc1ccc(Cl)cc1Cl | -22.6%
COc1ccccc1C1=NC(c2ccc(C)cc2)N=C1C (centres unmarked) | -32%
O=C(Nc1cnccn1)c1ccc(Cl)cc1 | 9.07%
Cc1ccc(-n2nnnc2SCC(=O)Nc2cccc(NC(=O)c3ccco3)c2)cc1C | -6.49%
COc1ccccc1NC(=O)Cn1cnc2sc(C(=O)NCc3ccco3)c(C)c2c1=O | 13%
